# Literature values as cited in PubChem BioAssay AID1259409 (Chemical Carcinogenesis Research Information System (CCRIS), 2018).
# This continues a long series; more values of the same kind are listed elsewhere.
# Test system: rodent chemically induced tumor inhibition, incidence and multiplicity
# Assay: CCRIS tumor inhibitor studies
# Settings: Species: RAT, Promoter: NONE USED
# From the text: The CCRIS database contains chemical records with carcinogenicity, mutagenicity, tumor promotion, and tumor inhibition test results. It was developed by the National Cancer Institute (NCI). Data are derived from studies cited in primary journals, current awareness tools, NCI reports, and other sources. Test results have been reviewed by experts in carcinogenesis and mutagenesis.
# CCRIS provides historical information from the years 1985 - 2011. It is no longer updated.
# This is an archive assay for CCRIS tumor inhibitor studies.
smiles,measurement,setting,value
O=[Se](O)O,"tumour outcome (control, treated, inhibition, significance)","Carcinogen: N-METHYL-N-NITROSOUREA, 684-9-35, Carcinogen: N-METHYL-N-NITROSOUREA, 684-9-35, Dose [Inhibitor]: 4 PPM IN DRINKING WATER DAILY FOR 10 MO STARTING SIMULTANEOUSLY WITH CARCINOGEN TREATMENT (STUDY DURATION: 10 MO), Dose [Inhibitor]: 4 PPM IN DRINKING WATER DAILY FOR 10 MO STARTING SIMULTANEOUSLY WITH CARCINOGEN TREATMENT (STUDY DURATION: 10 MO), Route [Inhibitor]: ORAL, Strain/Sex: WE/MALE, Target Tissue: Type of Lesion: HEART: NEUROGENIC SARCOMA, Dose [Carcinogen]: 20 MG/KG BW ONCE EVERY 4 WK FOR 40 WK","4/15 (27%), 7/16 (44%), -63%, not significant"
same,"tumour outcome (control, treated, inhibition, significance)","Carcinogen: N-METHYL-N-NITROSOUREA, 684-93-5, Carcinogen: N-METHYL-N-NITROSOUREA, 684-93-5, Dose [Inhibitor]: 4 MG/KG OF DIET DAILY STARTING 7 D AFTER CARCINOGEN TREATMENT AND CONTINUING FOR DURATION OF STUDY (STUDY DURATION: 130, Dose [Inhibitor]: 4 MG/KG OF DIET DAILY STARTING 7 D AFTER CARCINOGEN TREATMENT AND CONTINUING FOR DURATION OF STUDY (STUDY DURATION: 130, Route [Inhibitor]: ORAL, Strain/Sex: SPRAGUE-DAWLEY/FEMALE, Target Tissue: Type of Lesion: MAMMARY GLAND: ADENOCARCINOMA, Dose [Carcinogen]: 50 MG/KG BW IN 0.9% SALINE ONCE AT 50 D OF AGE","25/25 (100%), 25/25 (100%), 0%, not significant"
same,"tumour outcome (control, treated, inhibition, significance)","Carcinogen: N-METHYL-N-NITROSOUREA, 684-93-5, Carcinogen: N-METHYL-N-NITROSOUREA, 684-93-5, Dose [Inhibitor]: 4 PPM IN DIET DAILY FOR 128 D STARTING 7 D AFTER CARCINOGEN TREATMENT AND CONTINUING FOR DURATION OF STUDY (STUDY DURATI, Dose [Inhibitor]: 4 PPM IN DIET DAILY FOR 128 D STARTING 7 D AFTER CARCINOGEN TREATMENT AND CONTINUING FOR DURATION OF STUDY (STUDY DURATI, Route [Inhibitor]: ORAL, Strain/Sex: SPRAGUE-DAWLEY/FEMALE, Target Tissue: Type of Lesion: MAMMARY GLAND: CARCINOMA, Dose [Carcinogen]: 50 MG/KG BW IN ACIDIFIED SALINE (PH 4.0) ONCE AT 50 D OF AGE","90%, 90%, 0%, not significant"
same,"tumour outcome (control, treated, inhibition, significance)","Carcinogen: N-METHYL-N-NITROSOUREA, 684-93-5, Carcinogen: N-METHYL-N-NITROSOUREA, 684-93-5, Dose [Inhibitor]: 5 PPM IN DIET DAILY FOR 128 D STARTING 7 D AFTER CARCINOGEN TREATMENT AND CONTINUING FOR DURATION OF STUDY (STUDY DURATI, Dose [Inhibitor]: 5 PPM IN DIET DAILY FOR 128 D STARTING 7 D AFTER CARCINOGEN TREATMENT AND CONTINUING FOR DURATION OF STUDY (STUDY DURATI, Route [Inhibitor]: ORAL, Strain/Sex: SPRAGUE-DAWLEY/FEMALE, Target Tissue: Type of Lesion: MAMMARY GLAND: CARCINOMA, Dose [Carcinogen]: 50 MG/KG BW IN ACIDIFIED SALINE (PH 4.0) ONCE AT 50 D OF AGE","90%, 95%, -6%, not significant"
same,"tumour outcome (control, treated, inhibition, significance)","Carcinogen: N-METHYL-N-NITROSOUREA, 684-93-5, Carcinogen: N-METHYL-N-NITROSOUREA, 684-93-5, Dose [Inhibitor]: 6 PPM IN DIET DAILY FOR 128 D STARTING 7 D AFTER CARCINOGEN TREATMENT AND CONTINUING FOR DURATION OF STUDY (STUDY DURATI, Dose [Inhibitor]: 6 PPM IN DIET DAILY FOR 128 D STARTING 7 D AFTER CARCINOGEN TREATMENT AND CONTINUING FOR DURATION OF STUDY (STUDY DURATI, Route [Inhibitor]: ORAL, Strain/Sex: SPRAGUE-DAWLEY/FEMALE, Target Tissue: Type of Lesion: MAMMARY GLAND: CARCINOMA, Dose [Carcinogen]: 50 MG/KG BW IN ACIDIFIED SALINE (PH 4.0) ONCE AT 50 D OF AGE","90%, 90%, 0%, not significant"
same,"tumour outcome (control, treated, inhibition, significance)","Carcinogen: N-NITROSOBIS(2-OXOPROPYL)AMINE, 60599-38-4, Carcinogen: N-NITROSOBIS(2-OXOPROPYL)AMINE, 60599-38-4, Dose [Inhibitor]: 2 PPM IN DIET DAILY FOR 51 WK STARTING 1 WK BEFORE START OF CARCINOGEN TREATMENT AND CONTINUING FOR DURATION OF STUDY (S, Dose [Inhibitor]: 2 PPM IN DIET DAILY FOR 51 WK STARTING 1 WK BEFORE START OF CARCINOGEN TREATMENT AND CONTINUING FOR DURATION OF STUDY (S, Route [Inhibitor]: ORAL, Strain/Sex: MRC/MALE, Target Tissue: Type of Lesion: COLON: ADENOCARCINOMA, Dose [Carcinogen]: 5 MG/KG BW IN 0.9% SALINE 1/WK FOR 50 WK","12/29 (41%), 8/30 (27%), 34%, not calculated"
same,"tumour outcome (control, treated, inhibition, significance)","Carcinogen: N-NITROSOBIS(2-OXOPROPYL)AMINE, 60599-38-4, Carcinogen: N-NITROSOBIS(2-OXOPROPYL)AMINE, 60599-38-4, Dose [Inhibitor]: 2 PPM IN DIET DAILY FOR 51 WK STARTING 1 WK BEFORE START OF CARCINOGEN TREATMENT AND CONTINUING FOR DURATION OF STUDY (S, Dose [Inhibitor]: 2 PPM IN DIET DAILY FOR 51 WK STARTING 1 WK BEFORE START OF CARCINOGEN TREATMENT AND CONTINUING FOR DURATION OF STUDY (S, Route [Inhibitor]: ORAL, Strain/Sex: MRC/MALE, Target Tissue: Type of Lesion: LUNG: ADENOCARCINOMA, Dose [Carcinogen]: 5 MG/KG BW IN 0.9% SALINE 1/WK FOR 50 WK","4/29 (14%), 0/30 (0%), 100%, p<0.05"
